Whole data set: some 33,000 sequences, median “E-score (-0.5 to 0.5)” near -0.016, cut for the highest 2% near 0.31. Some of the results follow.
target: Cst6 (UniProt P40535); assay: PBM E-score (8-mer binding enrichment) (E-score (-0.5 to 0.5)); higher = stronger / more preferred TF binding; most listed sequences are background and not binding sites; conditions: protein concentration: 200 nM; construct: GST-DNA-binding domain
Method in brief: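 Full-length yeast transcription factors or their DNA-binding domains, GST-tagged and expressed with PURExpress, were applied at about 100-200 nM to universal all-10-mer Agilent arrays. These arrays had been made double-stranded by primer extension on fresh or once-stripped slides. Detection used fluorescent anti-GST, normalisation used masliner, and E-scores for ungapped eight-base words pooled with reverse complements came from the Universal PBM Analysis Suite.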

Sequence | PBM E-score
GTAGCCCA | -0.0774
GCTAAGAC | -0.0875
CTGTATCC | -0.0941
CAAGCTCG | -0.253
ATAAACGC | 0.0481
CCGTTGGC | -0.0595
ATACCCTA | -0.107
AATCTCTA | 0.146
CGTTGCAA | 0.00332
CACCGCCG | -0.0696
CAATATGA | 0.245
TACGGCTA | 0.0905
ATCGGTTC | -0.0289
AGCCTTCC | -0.243
CAGATGAG | 0.0374
CTCATGTC | 0.0261
GCAGGTGA | 0.109
AACGGCTT | 0.0157
AGCCATGG | -0.0543
TAAACCGA | -0.0476
AGGGCCAT | -0.123
GTTCGTCA | 0.269
AGCCCTGC | -0.0836
CGTGGGGA | -0.164
CTAGGGCC | -0.206

Sequence | PBM E-score
CCGATCAC | 0.0824
ACCGGGAA | 0.0359
GGGAGTAA | -0.0415
AGGGGTAC | -0.273
CTATTCAA | 0.197
GTGACACA | 0.322
AGCTTGGC | -0.251
ACTCATTG | -0.129
AGCACGCG | 0.0232
AGTAGATG | 0.147
CAGGCCAC | -0.174
AGCTCCGA | -0.145
CCGCTAAG | -0.0767
CGGGCCCG | -0.0625
CAGACGCG | -0.17
GCCTTTGA | -0.0769
GTAGTTAA | 0.129
ACTTAGGA | -0.161
AGAGCTGG | -0.185
GGGGCCAA | -0.319
GACTGTAA | 0.0809
GGAGCCCA | -0.289
ACCCAACC | -0.128
TCGGCAGA | -0.0704
AAGAACTT | 0.064

Sequence | PBM E-score
AGGTGCCA | -0.098
CTTGATGC | -0.0156
AGATGGAG | -0.221
ATAATGAT | 0.334
GAAAAAAC | 0.193
CTTTCTCA | 0.21
ATACCACA | 0.0944
ATACGGTA | 0.208
GCGGTAGC | -0.202
CACCTGGC | -0.159
GAGTAGGC | -0.017
CTTCGTTC | -0.0417
CGAGACCC | -0.107
CGTGTTCC | -0.103
GCGTCTCC | -0.0657
GAGACGAA | -0.099
AGGGGGAC | -0.401
ACCGCTTC | -0.29
CCAGGTGA | -0.0641
GTATCTTA | 0.212
CCAAATAA | 0.281
ATGGTATG | -0.199
AAATCAAG | 0.205
ACATGACA | 0.274
ACCTAACC | 0.103

Sequence | PBM E-score
CCAATCTC | 0.05
GGGCATGA | -0.111
ACGAGGCT | 0.227
CTAATGGA | -0.085
CTATATTC | 0.0369
CCCCGATC | -0.4
TAGGGGGA | -0.357
AACTGGTA | -0.168
TTTCAAAA | 0.238
TCAGCAGA | -0.0233
AGTACACT | -0.0224
GTTCCGAA | 0.143
AACGAGGT | 0.0136
GTGTTTTA | 0.104
CCTCCGGA | -0.277
CCGAGCAG | -0.12
AACACCAG | -0.11
ATTAACCA | -0.00714
ATCATCAA | 0.326
ATTCTCTC | 0.0266
TCGATGAA | 0.106
TAACTGCA | 0.00908
CTACAATA | 0.125
CGCTCGTA | -0.0604
AAGTGAGA | 0.00703

Sequence | PBM E-score
GCTACAAC | -0.201
TAGCGGGA | -0.199
TAAGTGGA | 0.104
AGTCGCTG | -0.122
ATTCAACC | -0.0419
ACAGTAAG | 0.0939
ATCTCCAA | -0.0789
CCGGAAGC | -0.162
CGGTCTCA | -0.233
GTCCCTCA | -0.111
AGTTAAAT | 0.178
GTCAAGCA | -0.29
TAGAGCAA | -0.089
ATTCGAAG | -0.0186
AGCTAAAA | 0.0957
ATGGCATG | 0.192
CATTTTAG | 0.236
CGCTCCAC | -0.209
ACAGCCTC | -0.201
TCTTTACA | 0.181
CCCTTCAC | -0.204
GGTTCGTA | 0.121
GCACCATA | -0.0457
CTGCCGTA | 0.0163
CTTTTGTC | 0.0876

Sequence | PBM E-score
TATCACAA | 0.217
GGTCGAAA | -0.107
GACCCTAC | -0.157
CGCGGTAA | 0.0402
AGGGCCTC | -0.241
AAGGCTGT | -0.27
GGTACTCA | -0.0257
ATAGCGAT | 0.0555
AGGGCGGA | -0.37
ACCAAGTG | -0.117
AGGGACTC | -0.359
CGTGTCCA | -0.0242
AGAACCTG | -0.221
ATGTCGTA | 0.277
GATTAAAC | 0.154
TAACGATA | 0.163
AATGGTGT | 0.0892
ATATTTCC | 0.0898
CCTGTCCC | -0.31
TATGCCGA | 0.0886
TGATCGAA | 0.185
GTCGGCGA | -0.167
CAGCTCAG | -0.0298
TATGGCAA | 0.0568
CCTATCTC | -0.0541

Sequence | PBM E-score
GACGGCTC | -0.0374
CTGGAGCA | -0.0734
AAATACCC | -0.0704
AAGCTTGT | -0.0437
GCCGTCAA | 0.0714
CGAGCTTA | -0.0873
CCTGATCC | -0.243
AGCGACAA | 0.0113
AAGGTTTG | 0.137
CTTCTGCC | 0.00759
GTTTGGCA | -0.121
AAGTTCGA | 0.0664
ATGCCTGC | -0.105
CTACGTAA | 0.451
ATGGAGGC | -0.118
CATACAGA | 0.177
ACAAATTC | 0.138
CAATCGGC | 0.106
CACAATAA | 0.147
CCAAGCTC | -0.1
CAGTATTC | 0.085
GCCAAACA | -0.121
TGTGCCAA | 0.0839
CCTGACAG | -0.118
GCCGCACC | 0.226

Sequence | PBM E-score
CTGTACGC | -0.0932
GCCGAAAA | 0.138
AGTCAACT | -0.176
CTAGTGCA | -0.0643
GCTCGGCC | -0.271
GCAAAGCA | -0.0871
CTATCGAC | -0.222
CTCCCGTC | -0.11
ACAGTACT | -0.17
AGGGCTCA | -0.237
AATCGGGA | -0.0829
CCACCGCC | -0.171
ATTTGGCA | 0.0989
GAGACTCA | -0.177
CCATTGCA | 0.024
CCGTAGCC | -0.218
ACTTACTG | 0.0171
CAATTGAC | 0.175
CTCGAACA | 0.104
ACCGACCG | -0.137
AGTTCTAC | 0.0561
ACTCATGG | -0.0163
AGGGGCTG | -0.271
ATTTCTTC | 0.262
GCCTGTTA | -0.0768

Sequence | PBM E-score
GGCAACCA | -0.122
AGATGAAG | -0.127
CTGCAAAG | -0.194
GGGGAGCA | -0.34
AACCGGAG | -0.183
GCCGCCAC | -0.188
CGGTAATC | -0.123
CTATCCTA | -0.0219
ATGGTTAG | 0.0482
CTCCACAC | -0.0788
GCAAATCC | 0.0459
AGCATCCA | -0.261
CAGCTAAG | -0.287
CTGAAGTA | 0.0246
ACAACGTG | -0.096
CGGCAACG | 0.0207
GGCTAGAC | -0.161
CTGCTTAA | -0.134
CCAGTTAG | -0.00191
CTGCCCAG | -0.297
TACCTCGA | -0.0707
CAGTAACG | 0.0316
TCCCATAA | -0.0488
AACACAGT | 0.0535
GGGCTGGA | -0.295

Sequence | PBM E-score
CGTTCAAG | 0.0142
ACAGTGGC | -0.0617
GCAGAGGA | -0.123
AAGAGATC | -0.168
CATCTACG | 0.05
AGCCCCAC | -0.161
AAACTCGC | -0.051
CCACTTAA | 0.016
ACAGTTGC | 0.0761
ATTTACCA | 0.157
CCGCTTCC | -0.191
AGGTGCTC | -0.333
CTACGGAA | -0.0572
AACTTGAC | 0.0406
CCCTGCAC | -0.215
GCATTAGA | 0.0922
GCGCCGAC | -0.0138
AGTGGAGC | -0.165
ATAAATCA | 0.233
CCGGTGAA | 0.0804
TATGCCAA | 0.009
CGGAGCTA | -0.157
AGGTGGCA | -0.0341
AGGGAGTC | -0.132
AAGGTCGT | -0.094

Sequence | PBM E-score
AAAGCCTC | 0.0176
GGATACCA | -0.197
GATACCGA | -0.108
GAGAGTAC | -0.122
ATCTAACC | 0.0628
AGAGGACA | -0.244
CGAAGGCG | 0.0989
GTGTCATA | 0.249
ATCGCGAC | -0.0926
AGTTCGCA | -0.00496
AACCGCAT | 0.108
CCCAACGG | -0.233
CCTGAGAG | -0.189
AAGCCACC | -0.334
ACCCGTTC | -0.0713
AATTGGCT | 0.079
CGTTTAAC | 0.0149
ACTAAACT | 0.122
CGAGCTAG | -0.108
ATGACAAA | 0.287
GATTGTGA | 0.117
GACAGCTC | -0.214
GTTGAGCA | 0.0201
GAAAGGAC | -0.0667
CGAAGCGC | -0.0692

Sequence | PBM E-score
TACTCTCA | 0.0473
CCGAGCCC | -0.353
CGCCGGTC | -0.0806
ATAGTTAA | 0.121
AAAATTGA | 0.22
AGTTTGCC | 0.0119
CCCTACCA | 0.0249
CTACTGTA | 0.0576
TGGTCTAA | -0.176
GACAGGCC | -0.211
GCGGCAGA | -0.0055
CGAAAGGC | 0.17
GATAATTA | 0.322
CACTGACG | 0.371
CGCTCAAA | -0.0669
CCGTTCTC | 0.0435
AAATAGGA | 0.164
AACTGCTG | -0.205
AGAGGGTA | -0.0387
CGCAGCCG | -0.202
AGCTACCG | -0.183
AGTGTACG | -0.105
ATCCAATA | 0.222
TAAGCGGA | 0.0337
CGTTAGCC | 0.131

Sequence | PBM E-score
CCCAACCC | -0.0951
CAGAACTA | 0.0299
ACGCCACT | 0.161
GTCTGCCA | -0.185
ACGAAACA | 0.198
GTCTCCGA | -0.221
ACTGGCCA | -0.0418
AAATTAAA | 0.292
AATCTGCC | -0.105
GCATCAGA | 0.159
GTACCCTA | -0.0546
AACGTCTT | 0.156
CGCTGACG | 0.384
TATGTGCA | 0.0745
TATAAACA | 0.158
CAGTTTGA | 0.035
GCCGCTCC | 0.00162
ACACCTGT | -0.144
CGCTGCAA | 0.0442
AAGGCGCT | 0.118
GTCACAAA | 0.221
AATTCTCT | -0.137
CCCCGGAG | -0.0966
AATCTAGG | 0.0667
ACAGTGTG | 0.087

Sequence | PBM E-score
AGCGTGTA | -0.0303
CCAAAAGG | -0.1
GTTGATCA | 0.219
GAATAGAC | 0.0948
GTGGGTGA | 0.123
ACTGATGA | 0.173
GAAACCGA | -0.156
CCTCAATC | 0.0338
ACATAATA | 0.345
CTGCAAGC | -0.119
CCAGCAGA | -0.191
CATCGGAG | -0.183
CTGATCAA | -0.0253
CGTCGTAC | 0.122
ACTGGAGC | -0.202
GGCACGAA | 0.196
CAGATCTG | -0.0953
AATTAAGT | 0.145
CGACAAAC | -0.0571

— the supplement of paper PMC3334620
